The other results are listed elsewhere or left out. At the low end of the ranking the order means little.

The assay has as its target MAX:MAX (p21) (UniProt P61244-2). Briefly: protein-binding microarray (anti-MAX antibody). Conditions: PBM: 15 mM Tris-HCl pH 7.5, 100 mM KCl, 0.075% NP40, 7.5 mM beta-mercaptoethanol, 375 ng/ul BSA, 8 ng/ul poly(dA-dT):(dA-dT), 550 ng complex, 60 min, room …; high values mean tight binding; double strand, one strand shown; sequences stand for … in CCGGC…TTAATAGCTAAGATTACTATATCGACG
The sequence TGAAATGTTGTA had a binding signal (log2 normalized fluorescence) of -0.219.

Regarding TGACATCATGTA, the binding signal (log2 normalized fluorescence) stood at 1.31.

Consider TGATTTTACGTA, for which the binding signal (log2 normalized fluorescence) is -1.05.

In turn, TGAGCATCAGTA displayed a binding signal (log2 normalized fluorescence) of -0.609.

The sequence TGACACGGGTAA registered a binding signal (log2 normalized fluorescence) of 2.05.

On to TGATTTCCCGTA, for which the binding signal (log2 normalized fluorescence) is -0.738.

Sequence AATGCATTTTTT gave a binding signal (log2 normalized fluorescence) of 1.65.

Sequence CACCACGTGGTA returned a binding signal (log2 normalized fluorescence) of 3.24.

Turning to TGAGTAGACGTA, the binding signal (log2 normalized fluorescence) is -0.937.

In turn, TGACAGGACGTA yielded a binding signal (log2 normalized fluorescence) of -0.168.

The sequence TGTCACGGGGTA yielded a binding signal (log2 normalized fluorescence) of 3.12.

Regarding TGACAAAATGTA, the binding signal (log2 normalized fluorescence) is -0.48.

Sequence TGATCACGAGTA displayed a binding signal (log2 normalized fluorescence) of 2.55.

As for TGACAAGTAGTA, the binding signal (log2 normalized fluorescence) was -0.386.

TAACACGTCGTA: the binding signal (log2 normalized fluorescence) was 2.38.

For TGACGTTTCGTA, the binding signal (log2 normalized fluorescence) was -0.518.

TGACCAAAAGTA showed a binding signal (log2 normalized fluorescence) of -0.688.

Consider TGACACCCGGTA, for which the binding signal (log2 normalized fluorescence) turned out to be 0.472.

As to TGACTGAGGGTA, the binding signal (log2 normalized fluorescence) was -0.612.

Sequence TGAATTGCGGTA had a binding signal (log2 normalized fluorescence) of -0.21.

As for TGACGGAGAGTA, the binding signal (log2 normalized fluorescence) is -0.87.

TGACCATCAGTA had a binding signal (log2 normalized fluorescence) of 0.3.

Sequence TGAGCGACCGTA showed a binding signal (log2 normalized fluorescence) of -0.787.

Sequence TGAGGAGAAGTA had a binding signal (log2 normalized fluorescence) of -0.741.

The sequence TGAAGCGTTGTA registered a binding signal (log2 normalized fluorescence) of 0.604.

The sequence TGAGGAAGCGTA registered a binding signal (log2 normalized fluorescence) of -0.805.

For the sequence TGATCCAAGGTA, the binding signal (log2 normalized fluorescence) was -0.618.

TGACACGTAAGA gave a binding signal (log2 normalized fluorescence) of 0.949.

On to TGACCTCGAGTA, for which the binding signal (log2 normalized fluorescence) was determined as 1.24.

Sequence TGAAGTCGCGTA returned a binding signal (log2 normalized fluorescence) of -0.905.

The sequence TGAACGCCCGTA registered a binding signal (log2 normalized fluorescence) of -0.102.

Sequence TGATTGATTGTA gave a binding signal (log2 normalized fluorescence) of -0.978.

As to TGAGGGACCGTA, the binding signal (log2 normalized fluorescence) is -0.619.

For TGATAGTACGTA, the binding signal (log2 normalized fluorescence) was -0.743.

TGAGGGGTGGTA displayed a binding signal (log2 normalized fluorescence) of 1.59.

TGAAGGCGCGTA returned a binding signal (log2 normalized fluorescence) of -0.33.

Regarding TGATGATGGGTA, the binding signal (log2 normalized fluorescence) was -0.279.

In the case of TGAAGGTAAGTA, the binding signal (log2 normalized fluorescence) is -0.438.

As for TGAGTTCGAGTA, the binding signal (log2 normalized fluorescence) is -1.16.

TGATTCTCGGTA: the binding signal (log2 normalized fluorescence) is -1.26.

The sequence TGACGATATGTA yielded a binding signal (log2 normalized fluorescence) of -0.374.

Turning to TGAATTATGGTA, the binding signal (log2 normalized fluorescence) is -0.391.

Sequence CGACCCGTGCTA returned a binding signal (log2 normalized fluorescence) of 2.55.

Turning to TGATAGATTGTA, the binding signal (log2 normalized fluorescence) was -1.02.

Turning to TGATCTCCCGTA, the binding signal (log2 normalized fluorescence) is -0.927.

As to TGAGGTGTCGTA, the binding signal (log2 normalized fluorescence) is -0.401.

Sequence TGAGTGGAGGTA yielded a binding signal (log2 normalized fluorescence) of -0.11.

For the sequence TGACACCCAGTA, the binding signal (log2 normalized fluorescence) stood at 0.202.

TGAAGTCCCGTA showed a binding signal (log2 normalized fluorescence) of -0.659.

In the case of TGATGAGCTGTA, the binding signal (log2 normalized fluorescence) was -0.592.

TGAATTAGAGTA displayed a binding signal (log2 normalized fluorescence) of -1.12.

TGAAAAAGCGTA displayed a binding signal (log2 normalized fluorescence) of -0.28.

Sequence TGAACGTCAGTA returned a binding signal (log2 normalized fluorescence) of -0.37.

The sequence TGATAGATCGTA had a binding signal (log2 normalized fluorescence) of -1.21.

TGAGGGGATGTA: the binding signal (log2 normalized fluorescence) was 0.406.

In the case of TGATTTGCCGTA, the binding signal (log2 normalized fluorescence) was -1.14.

Regarding TGAGTCTGCGTA, the binding signal (log2 normalized fluorescence) was -0.699.

For TGCCACGTGTTA, the binding signal (log2 normalized fluorescence) is 3.28.

In turn, TGATGGTTTGTA returned a binding signal (log2 normalized fluorescence) of 0.0544.

The sequence TGACCCACAGTA returned a binding signal (log2 normalized fluorescence) of -0.0297.

Sequence TGAACGTAAGTA yielded a binding signal (log2 normalized fluorescence) of -0.377.

TGACACGGCGTA returned a binding signal (log2 normalized fluorescence) of 0.815.

For the sequence TGACATGTGTTA, the binding signal (log2 normalized fluorescence) came out at 3.03.

On to TGTCACGTGCTA, for which the binding signal (log2 normalized fluorescence) worked out at 3.15.

On to TGAGTTCGCGTA, for which the binding signal (log2 normalized fluorescence) is -0.997.

On to AGACTCGTGGTA, for which the binding signal (log2 normalized fluorescence) was found to be 3.06.

TGACACGTGCCC showed a binding signal (log2 normalized fluorescence) of 3.16.

Regarding TGATTAAACGTA, the binding signal (log2 normalized fluorescence) is -0.848.

TGATCAGACGTA: the binding signal (log2 normalized fluorescence) is -0.501.

TGATTCGTGGTA registered a binding signal (log2 normalized fluorescence) of 0.256.

As to TGACGCGATGTA, the binding signal (log2 normalized fluorescence) amounted to 0.367.

Take TGATATAGCGTA: the binding signal (log2 normalized fluorescence) is -0.899.

The sequence TGATGAAATGTA yielded a binding signal (log2 normalized fluorescence) of -0.711.

TGAAGCTCCGTA: the binding signal (log2 normalized fluorescence) is -0.756.

For the sequence TGAATGTTAGTA, the binding signal (log2 normalized fluorescence) was found to be 0.191.

TGACAACTTGTA had a binding signal (log2 normalized fluorescence) of -0.311.

The sequence TGAGCCGGAGTA came in with a binding signal (log2 normalized fluorescence) of -1.29.

In the case of TCGAACGTGGTA, the binding signal (log2 normalized fluorescence) is 2.47.

TGAAGCCATGTA displayed a binding signal (log2 normalized fluorescence) of 0.0355.

In turn, TGAGCTCCGGTA came in with a binding signal (log2 normalized fluorescence) of -0.975.

Turning to TGCCGCGTGGTA, the binding signal (log2 normalized fluorescence) was 3.21.

On to TGATTTTATGTA, for which the binding signal (log2 normalized fluorescence) was -1.25.

TGAACAGCCGTA: the binding signal (log2 normalized fluorescence) was -0.516.

Consider TGAGAGACGGTA, for which the binding signal (log2 normalized fluorescence) is -0.752.

As for TGAGGATTCGTA, the binding signal (log2 normalized fluorescence) was -1.1.

TGAGTAACAGTA returned a binding signal (log2 normalized fluorescence) of -1.09.

In the case of TGAGATTCGGTA, the binding signal (log2 normalized fluorescence) was -1.15.

TGATCGCGGGTA came in with a binding signal (log2 normalized fluorescence) of -0.275.

For TGATCCCATGTA, the binding signal (log2 normalized fluorescence) came to 1.33.

TGAGTGAATGTA came in with a binding signal (log2 normalized fluorescence) of -0.414.

On to TGAGCATGGGTA, for which the binding signal (log2 normalized fluorescence) turned out to be 2.27.

TAACACATGGTA registered a binding signal (log2 normalized fluorescence) of 3.13.

TGACTCAATGTA came in with a binding signal (log2 normalized fluorescence) of -0.364.

With TGAGTATCGGTA, the binding signal (log2 normalized fluorescence) was -1.27.

Consider TGAATACAAGTA, for which the binding signal (log2 normalized fluorescence) is -0.759.

The sequence TGACTAACAGTA showed a binding signal (log2 normalized fluorescence) of -0.714.

As to TTACACCAGGTA, the binding signal (log2 normalized fluorescence) amounted to 0.598.

Regarding TGAGATTCTGTA, the binding signal (log2 normalized fluorescence) was -1.05.

Consider TGATAATCAGTA, for which the binding signal (log2 normalized fluorescence) is -0.534.

TGAGCTGCGGTA showed a binding signal (log2 normalized fluorescence) of -0.646.

Consider TAACTCGTTGTA, for which the binding signal (log2 normalized fluorescence) was determined as 1.1.

As to TGAGTAGGAGTA, the binding signal (log2 normalized fluorescence) was -1.17.

Regarding TGACACGTAAAA, the binding signal (log2 normalized fluorescence) came to 0.695.

Regarding TGACCGAATGTA, the binding signal (log2 normalized fluorescence) was found to be 0.0274.

As for TGACTGGCTGTA, the binding signal (log2 normalized fluorescence) was -0.377.

The sequence TGATGACATGTA gave a binding signal (log2 normalized fluorescence) of 0.574.

Take TGACACGTGGTC: the binding signal (log2 normalized fluorescence) is 3.21.

As to TGAGGCGGGGTA, the binding signal (log2 normalized fluorescence) is 0.948.

In the case of TGATTGCCTGTA, the binding signal (log2 normalized fluorescence) was -0.395.

TGATATAGTGTA registered a binding signal (log2 normalized fluorescence) of -0.641.

For the sequence TGAGAATTAGTA, the binding signal (log2 normalized fluorescence) was -1.24.

TGAAGTGAGGTA registered a binding signal (log2 normalized fluorescence) of 0.0729.

In turn, TGATACATGGTA returned a binding signal (log2 normalized fluorescence) of 0.557.

Turning to TGACAGTGAGTA, the binding signal (log2 normalized fluorescence) was -0.256.

The sequence TGATCCGCAGTA had a binding signal (log2 normalized fluorescence) of -0.645.

TGACATGCGGTA came in with a binding signal (log2 normalized fluorescence) of 2.99.

Regarding TGACACGTGGGG, the binding signal (log2 normalized fluorescence) was found to be 3.36.

Consider TCATACGTGGAA, for which the binding signal (log2 normalized fluorescence) was determined as 1.28.

For TGAGGGTCCGTA, the binding signal (log2 normalized fluorescence) is -0.522.

In turn, TGAGAAAGCGTA showed a binding signal (log2 normalized fluorescence) of -0.868.

TGAACTTCAGTA showed a binding signal (log2 normalized fluorescence) of -0.481.

TGATATCGCGTA registered a binding signal (log2 normalized fluorescence) of -0.66.

In turn, TGAGGTATTGTA displayed a binding signal (log2 normalized fluorescence) of -0.653.

TGAAAAAAAGTA yielded a binding signal (log2 normalized fluorescence) of -0.993.

TGAACGTGTGTA came in with a binding signal (log2 normalized fluorescence) of 2.45.

Regarding TGATACCTGGTG, the binding signal (log2 normalized fluorescence) is -0.298.

Turning to TGACATTTGGTG, the binding signal (log2 normalized fluorescence) is -0.316.

Regarding TGATTCGTCGTA, the binding signal (log2 normalized fluorescence) is -1.04.

For the sequence TGATGCCCGGTA, the binding signal (log2 normalized fluorescence) is -0.331.

In turn, TTCCACGTGGTA returned a binding signal (log2 normalized fluorescence) of 3.13.

Sequence TGCCACGTTGTA came in with a binding signal (log2 normalized fluorescence) of 3.09.

For the sequence TGAGATTCCGTA, the binding signal (log2 normalized fluorescence) was -1.11.

Sequence TGGCTCGTGGTA yielded a binding signal (log2 normalized fluorescence) of 2.78.

For the sequence TGACTTGGTGTA, the binding signal (log2 normalized fluorescence) was -0.513.

Turning to TGAGTGAAGGTA, the binding signal (log2 normalized fluorescence) is -0.419.

TGACACGTGAGC gave a binding signal (log2 normalized fluorescence) of 3.09.

In the case of TGAGTTTACGTA, the binding signal (log2 normalized fluorescence) is -1.12.

TGATTGTTCGTA registered a binding signal (log2 normalized fluorescence) of -0.852.

For the origin of these results see article PMC5515408.
